Measurements taken from patent publication US11078245B2, “Colon and pancreas cancer peptidomimetics” (PRECISION BIOLOGICS, INC., priority 2010, dated 2021).

Test system: CFPAC1 cells
Assay: NEO-101-coupled Dynal beads rosette assay
Format: cell-based, human
Conditions: antibody-coupled Dynal beads with TBS, no M13 clone
Description: The M13 clones identified by the biopanning were also immunoassayed using magnetic beads. Aliquots of 5 μl M13 phage (10^11/10 μl) were mixed with 10 μl NEO-101-coupled Dynal® beads at RT for 20 min on a rotator. CFPAC1 cells (30 μl of 10^6 cells/ml) were added and incubated at 4° C. for 30 min. Rosetted cells were counted (>8 beads/cell).

B1: H16C3: antibody coupled to Dynal beads, specificity control (antibody)
heavy: QVQLVQSGAEVKKPGASVKVSCKASGYTFTDYAMHWVRQAPGQRLEWMGLISTYSGDTKYNQNFQGRVTMTVDKSASTAYMELSSLRSEDTAVYYCARGDYSGSRYWFAYWGQGTLVTVSS[omitted - human IgG1 constant region]
light: DIQMTQSPSSLSASVGDRVTITCQASENIYGALNWYQRKPGKSPKLLIYGASNLATGMPSRFSGSGSGTDYTFTISSLQPEDIATYYCQQVLSSPYTFGGGTKLEIKRTVAAPSVFIFPPSDEQLKSGTASVVCLLNNFYPREAKVQWKVDNALQSGNSQESVTEQDSKDSTYSLSSTLTLSKADYEKHKVYACEVTHQGLSSPVTKSFNRGEC
- Positive rosette cells (%): 60%
